# Where “and” joins values, the source holds several entries; their conditions need not be identical. Equal entries are not always repeated. Inconclusive means that the source gave no clear call. Such entries were picked first, then a sample of the others. A potency beside an inconclusive call is a rough fit, not a confirmed value. Calls of active or inactive are those of the source. Unless noted, calls come from the whole dose curve; as a rule, active = well fitted cell-killing curve with a large enough effect in the repeat runs; inconclusive = weak or mixed curves, or effect the other way; inactive = flat fitted curve, though single readings scatter.
# Assay: qHTS assay to identify small molecule antagonists of the TGF-beta/Smad signaling pathway (AID 1346924; active = well fitted inhibition curve with a large enough effect in the signal ratio in the repeat runs, not every such curve was filed as active; inconclusive = weak or mixed curves; the % refers to the signal ratio)
# Settings: SBE-bla HEK293T, TGF-beta/Smad reporter, beta-lactamase ratio; activity, negative = inhibition: at 76.8 µM (top of the series) unless noted
# In short: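 SBE-bla HEK 293T cells were plated overnight, then received compound in DMSO plus TGF-beta1 (added as a 0.25 ng/mL solution) and were incubated 5 h at 37 C. Beta-lactamase reporter activity was read after 2 h at room temperature with LiveBLAzer B/G FRET substrate (ex 405, em 460/530 nm).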
# Potency is the fitted concentration of half-maximal effect; tags give direction and shape of the fitted curve or compound fluorescence and quenching.
Structure (SMILES),"activity, negative = inhibition",Potency
Nc1ccc(-c2ccccc2)cc1,inconclusive: 4.56%,
CC1(c2ccc(Oc3ccccc3)cc2)OC(=O)N(Nc2ccccc2)C1=O (stereo unspecified),,"inconclusive: 4.93 µM [rising, partial curve, poor fit]"
CCCCCCOC(=O)c1ccccc1C(=O)OCCCCCC,inconclusive: -36.5% and inconclusive: -11.9%,
CCN(CC)c1c([N+](=O)[O-])cc(C(F)(F)F)c(N)c1[N+](=O)[O-],inconclusive: -12.9%,
Nc1ccc([N+](=O)[O-])cc1[N+](=O)[O-],inconclusive: 1.77%,
OC[P+](CO)(CO)CO,inconclusive: -12.6% and inconclusive: 4.03%,
CCOC(=S)S,inconclusive: -11.6%,
COc1ccc(Cc2nccc3cc(OC)c(OC)cc23)cc1OC,inconclusive: -11.9% [at 35.3 µM],
CC1COC(Cn2cncn2)(c2ccc(Oc3ccc(Cl)cc3)cc2Cl)O1 (stereo unspecified),,inconclusive: 49 µM
CC(=O)c1cc2c(cc1C)C(C)(C)C(C)CC2(C)C (stereo unspecified),inconclusive: -19.8%,
N#CCC#N,inconclusive: 1.29%,
Fc1ccc(Oc2ccnc3cc(Cl)cc(Cl)c23)cc1,,"inconclusive: 8.71 µM [rising, partial curve]"
BrCCCCBr,inconclusive: 1.59%,
CCC[N+](=O)[O-],inconclusive: -23.6%,
CCCC1COC(Cn2cncn2)(c2ccc(Cl)cc2Cl)O1 (stereo unspecified),,"inconclusive: 34.7 µM [rising, partial curve]"
CN(C)c1ccc(N=Nc2ccccc2)cc1,inconclusive: -19.6%,
CCOP(=S)(OCC)SCn1c(=O)oc2cc(Cl)ccc21,,"inconclusive: 66.1 µM [rising, partial curve, poor fit]"
CN1C2CCC(C)(C)C1CC(OC(=O)C(O)(c1cccs1)c1cccs1)C2 (stereo unspecified),inconclusive: -1.93% [at 35.3 µM],
Oc1c(Cl)c(Cl)cc(Cl)c1Cl,inconclusive: -15.4%,
CCCCC(C#N)(Cn1cncn1)c1ccc(Cl)cc1 (stereo unspecified),,"inconclusive: 30.9 µM [rising, partial curve, poor fit]"

Structure (SMILES),"activity, negative = inhibition",Potency
Nc1c(Cl)cc([N+](=O)[O-])cc1Cl,inconclusive: -35.2%,
Nc1ccc(Cc2ccc(N)c(Cl)c2)cc1Cl,inconclusive: -2.88%,
CC1(C)CCC(Cc2ccc(Cl)cc2)C1(O)Cn1cncn1 (stereo unspecified),inconclusive: -13.9%,
COP(=S)(OC)SCn1nnc2ccccc2c1=O,inconclusive: -4.54%,
Nc1ccc(Sc2ccc(N)cc2)cc1,inconclusive: -32.2%,
CN(C)CCc1c[nH]c2cccc(O)c12,inconclusive: 13.3%,
N#Cc1cc([N+](=O)[O-])ccc1N,inconclusive: 33.5%,
C=CC(=O)OC(C)(C)C,inconclusive: -2.32%,
O=c1[nH]c2ccccc2n1CCCN1CCC(n2c(=O)[nH]c3cc(Cl)ccc32)CC1,inconclusive: -6.52% [at 35.3 µM],
COc1cc(C=O)cc2c1[C@H](COC(N)=O)[C@]1(OC(C)=O)ON2C[C@H]2[C@@H]1N2C(C)=O,inconclusive: 19%,
O=S(=O)(O)C(F)(F)C(F)(F)C(F)(F)C(F)(F)F,inconclusive: -4.39%,
O.O.O.O=C([O-])[C@H]([O-])[C@@H]([O-])C(=O)[O-].O=C([O-])[C@H]([O-])[C@@H]([O-])C(=O)[O-].[K+].[K+].[Sb+3].[Sb+3],inconclusive: 1.05%,
Nc1ccc(N=Nc2ccccc2)cc1,inconclusive: -4.22%,
CCCCN(CCCC)C(=S)[S-].CCCCN(CCCC)C(=S)[S-].[Zn+2],inconclusive: -0.209%,
O=C(c1ccccc1)C(Cl)Cl,inconclusive: -5.15%,
Clc1ccc(CSC(Cn2ccnc2)c2ccc(Cl)cc2Cl)cc1 (stereo unspecified),inconclusive: -21.5% [at 35.3 µM],
Nc1cccc2ccccc12,inconclusive: 6.85%,
COP(=O)(OC)Oc1ccc([N+](=O)[O-])cc1,inconclusive: -18.4%,
Oc1ccc(C(=C(Cl)Cl)c2ccc(O)cc2)cc1,inconclusive: -2.5%,

# Assay: Human pregnane X receptor (PXR) small molecule agonists, qHTS cell viability counter screen (AID 1346977); note: nearly all actives have a fitted effect of over 50% in size; for activity change, negative = cytotoxicity: % is set by controls: 0 for no effect and ±100 for the full control effect
# Settings: PXR-Luc HepG2 viability, CellTiter-Fluor, 24 h; series mostly up to 92.4 µM; activity change, negative = cytotoxicity: at the top concentration
# In short: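 HepG2 cells stably carrying the PXR-Luc reporter are cultured with 5% charcoal-stripped FBS and treated with compounds for 24hr. CellTiter-Fluor is added at 23hr and fluorescence is read after 1hr.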
Structure (SMILES),Potency,"activity change, negative = cytotoxicity"
Nc1ccc(-c2ccccc2)cc1,"inconclusive: 49.9 µM [cytotoxic, partial curve]",
CCCCCCOC(=O)c1ccccc1C(=O)OCCCCCC,"inconclusive: 70.8 µM [cytotoxic, single point]",
Nc1ccc([N+](=O)[O-])cc1[N+](=O)[O-],"inconclusive: 53.1 µM [cytotoxic, partial curve]",
OC[P+](CO)(CO)CO,"inconclusive: 69.4 µM [cytotoxic, partial curve, poor fit]",
CCOC(=S)S,"inconclusive: 32.6 µM [cytotoxic, partial curve]",
COc1ccc(Cc2nccc3cc(OC)c(OC)cc23)cc1OC,active: 9.44 µM,
CC1COC(Cn2cncn2)(c2ccc(Oc3ccc(Cl)cc3)cc2Cl)O1 (stereo unspecified),active: 21.7 µM,
N#CCC#N,"inconclusive: 68.6 µM [cytotoxic, single point]",
Fc1ccc(Oc2ccnc3cc(Cl)cc(Cl)c23)cc1,inconclusive: 68.6 µM [cytotoxic],
BrCCCCBr,,inactive: -2.54%
CCC[N+](=O)[O-],inactive,
CCCC1COC(Cn2cncn2)(c2ccc(Cl)cc2Cl)O1 (stereo unspecified),"inconclusive: 50.1 µM [cytotoxic, single point] and inconclusive: 68.6 µM [cytotoxic, single point]",
CN(C)c1ccc(N=Nc2ccccc2)cc1,"inconclusive: 61.2 µM [cytotoxic, partial curve]",
CCOP(=S)(OCC)SCn1c(=O)oc2cc(Cl)ccc21,"inconclusive: 79.4 µM [cytotoxic, partial curve, poor fit]",
CN1C2CCC(C)(C)C1CC(OC(=O)C(O)(c1cccs1)c1cccs1)C2 (stereo unspecified),"inconclusive: 29.8 µM [cytotoxic, single point]",
Oc1c(Cl)c(Cl)cc(Cl)c1Cl,"inconclusive: 66.7 µM [cytotoxic, single point]",

Structure (SMILES),Potency,"activity change, negative = cytotoxicity"
Nc1c(Cl)cc([N+](=O)[O-])cc1Cl,"inconclusive: 61.1 µM [cytotoxic, partial curve, poor fit]",
Nc1ccc(Cc2ccc(N)c(Cl)c2)cc1Cl,"inconclusive: 52.7 µM [cytotoxic, partial curve]",
CC1(C)CCC(Cc2ccc(Cl)cc2)C1(O)Cn1cncn1 (stereo unspecified),"inconclusive: 68.6 µM [cytotoxic, single point]",
COP(=S)(OC)SCn1nnc2ccccc2c1=O,"inconclusive: 68.6 µM [cytotoxic, single point]",
Nc1ccc(Sc2ccc(N)cc2)cc1,inconclusive: 68.6 µM [cytotoxic],
CN(C)CCc1c[nH]c2cccc(O)c12,"inconclusive: 67.9 µM [cytotoxic, single point]",
N#Cc1cc([N+](=O)[O-])ccc1N,"inconclusive: 68.6 µM [cytotoxic, partial curve, poor fit]",
COc1cc(C=O)cc2c1[C@H](COC(N)=O)[C@]1(OC(C)=O)ON2C[C@H]2[C@@H]1N2C(C)=O,active: 1.93 µM,
O=S(=O)(O)C(F)(F)C(F)(F)C(F)(F)C(F)(F)F,"inconclusive: 70.8 µM [cytotoxic, partial curve, poor fit]",
Nc1ccc(N=Nc2ccccc2)cc1,"inconclusive: 48.6 µM [cytotoxic, partial curve]",
CCCCN(CCCC)C(=S)[S-].CCCCN(CCCC)C(=S)[S-].[Zn+2],active: 13.7 µM,
O=C(c1ccccc1)C(Cl)Cl,"inconclusive: 61.1 µM [cytotoxic, partial curve, poor fit]",
Clc1ccc(CSC(Cn2ccnc2)c2ccc(Cl)cc2Cl)cc1 (stereo unspecified),"inconclusive: 33.5 µM [cytotoxic, single point]",
Nc1cccc2ccccc12,inactive,
COP(=O)(OC)Oc1ccc([N+](=O)[O-])cc1,"inconclusive: 68.6 µM [cytotoxic, partial curve, poor fit]",
Oc1ccc(C(=C(Cl)Cl)c2ccc(O)cc2)cc1,inconclusive: 68.5 µM [cytotoxic],
